Test results reported in PubChem BioAssay AID2107 (National Center for Advancing Translational Sciences (NCATS), 2009).
The whole screen tested about 240,000 compounds, of which about 20 (0.008%) were called active. Inconclusive means that the source gave no clear call. Such entries were picked first, then a sample of the others. The call rests on the fitted dose curve; in most records, active means well fitted inhibition curve with a large enough effect; inconclusive means small, poorly fitted or top-dose-only effect, or effect the other way; inactive means flat fitted curve, though single readings scatter. Potencies of inconclusive entries are left out as doubtful fits.

target: Alpha-galactosidase A (Homo sapiens) (UniProt P06280); experiment: qHTS Assay for Inhibitors and Activators of Human alpha-Galactosidase From Spleen Homogenate; details: 4MU-alpha-Gal fluorescence, 40 min; series mostly up to 80 µM
Outline: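 Human spleen homogenate (1 ug) was the enzyme source, with 4-methylumbelliferyl-alpha-D-galactopyranoside (1 mM final) in pH 5.0 citrate buffer with 0.01% Tween-20. Compounds were titrated; after 40 min at 37C, NaOH/glycine stop, 4-MU fluorescence read; AC50 from Hill fits.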
Potency means the concentration at half of the fitted maximal effect; tags describe the fitted curve by direction and shape.

UniProt P06280, sequence (P06280 whole entry, looked up): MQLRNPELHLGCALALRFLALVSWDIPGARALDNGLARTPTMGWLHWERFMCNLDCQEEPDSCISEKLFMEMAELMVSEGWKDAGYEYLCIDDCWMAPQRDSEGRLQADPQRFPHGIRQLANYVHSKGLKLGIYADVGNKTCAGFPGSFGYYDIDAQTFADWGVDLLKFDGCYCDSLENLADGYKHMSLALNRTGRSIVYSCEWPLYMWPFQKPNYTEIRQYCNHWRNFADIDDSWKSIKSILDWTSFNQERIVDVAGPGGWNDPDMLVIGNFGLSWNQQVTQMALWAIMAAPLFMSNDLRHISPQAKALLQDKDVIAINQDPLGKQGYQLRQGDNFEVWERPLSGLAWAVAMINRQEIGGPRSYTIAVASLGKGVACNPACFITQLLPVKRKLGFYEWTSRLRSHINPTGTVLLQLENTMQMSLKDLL

Row | SMILES | Potency
1 | N#Cc1c(N)n(-c2cccc(C(=O)O)c2)c2nc3ccccc3nc12 | inconclusive [activator, partial curve]
2 | CC(C)c1cccc2cc3c(nc12)-c1cccc(=O)n1C3 | inconclusive [activator, full curve, poor fit]
3 | CCOc1c(C)cc(-c2ncccc2O)cc1C | inconclusive [activator, single point]
4 | CCN(CC)c1ccc(/C=N/NC(=O)C(O)c2ccccc2)cc1 (stereo not drawn) | inconclusive [activator, partial curve, poor fit]
5 | Cc1c(C)c2cc(Cl)c(O)c(CN3CCCC(C)C3)c2oc1=O (stereo not drawn) | inconclusive [activator, partial curve]
6 | O=C1C2Sc3[nH]c(=O)sc3C(c3ccccc3)C2C(=O)N1c1ccccc1 (stereo not drawn) | inactive
7 | COc1ccc(C(NC(=O)C(C)C)c2c(O)ccc3ccccc23)cc1 (stereo not drawn) | inconclusive [activator, single point]
8 | COc1ccc(/C=N/n2c(=O)[nH]c3c([nH]c4ccc(F)cc43)c2=O)cc1CN1CCCCC1 | inconclusive [activator, partial curve]
9 | C/C(=N/NC(N)=S)c1cc2ccc(O)cc2oc1=O | inconclusive [activator, partial curve]
10 | COc1ccccc1-c1nnc2sc(-c3ccc(N(C)C)cc3)nn12 | inconclusive [activator, partial curve]
11 | C[C@H]1C(c2ccc(F)cc2)=NN(c2ccccc2)[C@@H]1CO | inconclusive [activator, partial curve]
12 | O=C(c1cc2c(=O)n3ccccc3nc2s1)N1CCOCC1 | inconclusive [activator, full curve, poor fit]
13 | COc1ccc(OC)c(C2C3CN(C(C)C)CC=C3C(C#N)=C(N)C2(C#N)C#N)c1 (stereo not drawn) | inconclusive [activator, single point]
14 | O=C1NC(c2ccco2)Nc2sc3c(c21)CCN(Cc1ccccc1)C3 (stereo not drawn) | inconclusive [activator, single point]
15 | Oc1ccc(/C=N/NC(=S)NCc2ccco2)cc1 | inactive
16 | CCC(=O)NC(c1ccc(OC)cc1)c1c(O)ccc2ccccc12 (stereo not drawn) | inconclusive [activator, partial curve]
17 | COc1ccc(-c2cc(-c3cccnc3)c(C#N)c(N)n2)cc1 | inconclusive [activator, partial curve]
18 | CC(=O)C(=Cc1ccc(C(=O)O)cc1)C(C)=O | inconclusive [inhibitor, single point]
19 | N/C(Cc1ccc([N+](=O)[O-])cc1)=N\OC(=O)c1ccc2ccccc2c1 | inconclusive [inhibitor, single point]
20 | CCCCn1c(NC(=O)c2ccco2)c(S(=O)(=O)c2ccc(C)cc2)c2nc3ccccc3nc21 | inconclusive [activator, single point]
21 | COc1ccc(Cn2c(/C=C/c3ccccc3)nc3ccccc32)cc1 | inconclusive [activator, partial curve]
22 | CN(C)c1ccc(C=Nc2ccccc2)cc1 | inconclusive [activator, single point]
23 | CCCc1cc(=O)oc2c(CN3CCN(C)CC3)c(O)c(Cl)cc12 | inconclusive [activator, partial curve]

Row | SMILES | Potency
24 | O=C1NC(O)=NC1(c1ccccc1)c1ccccc1 | inconclusive [activator, full curve, poor fit]
25 | Cc1cc(=O)oc2cc3c(cc12)OCCN3 | inconclusive [activator, partial curve]
26 | Cc1ccc(S(=O)(=O)c2c(N)n(C)c3nc4ccccc4nc23)cc1 | inconclusive [activator, partial curve]
27 | CCC1OC23CCCCC2C(C#N)(C(=N)O3)C1(C#N)C#N (stereo not drawn) | inconclusive [activator, partial curve]
28 | CC(=O)NCCn1c(SCC(=O)NCCC2=CCCCC2)nc2ccccc2c1=O | inconclusive [activator, single point]
29 | Cc1cccn2c(=O)c3cc(C#N)c(=O)n(CCCN4CCOCC4)c3nc12 | inconclusive [activator, partial curve]
30 | Cc1ccc2nc3c(cc(C(N)=S)c(=N)n3CCCOC(C)C)c(=O)n2c1 | inconclusive [activator, single point]
31 | COc1ccc2cc3cc(C(=O)NCC4COc5ccccc5O4)oc3nc2c1 (stereo not drawn) | inconclusive [activator, partial curve]
32 | N#CC(c1nc2ccccc2nc1N1CCCC1)S(=O)(=O)c1ccccc1 (stereo not drawn) | inconclusive [activator, single point]
33 | CCc1cc(=O)oc2cc(OC(C)=O)cc(OC(C)=O)c12 | inconclusive [activator, partial curve]
34 | O=c1oc2c(CN3CCN(CCO)CC3)c(O)ccc2cc1-c1ccccn1 | inconclusive [activator, partial curve]
35 | CCS(=O)(=O)Nc1ccc(-c2nc3cccnc3s2)cc1 | inconclusive [activator, partial curve]
36 | Cc1ccc(NC(=S)NC(C)CCc2ccccc2)cc1C (stereo not drawn) | inactive
37 | Cc1ccccc1NC(=O)CC1SC(=O)N(c2ccccc2)C1=O (stereo not drawn) | inactive
38 | c1cc(-c2nnc3n2CCCCC3)ccn1 | inactive
39 | COCCCNC(=O)c1c(N)n(-c2ccc(S(N)(=O)=O)cc2)c2nc3ccccc3nc12 | inconclusive [activator, partial curve]
40 | Cc1cccc(-c2noc(CCC(=O)Nc3ccc(C(N)=O)cc3)n2)c1 | inconclusive [inhibitor, single point]
41 | Cc1cc(C(=O)COc2cccc(-n3cnnn3)c2)c(C)n1-c1ccccc1 | inactive
42 | COc1ccc(NC(=S)N2CCC(c3nc4ccccc4o3)CC2)c(OC)c1 | inconclusive [activator, single point]
43 | O=C(Nc1nc2ccsc2c(=O)s1)c1ccc(F)cc1Cl | inconclusive [activator, single point]
44 | N/C(=N\OC(=O)Cc1ccccc1[N+](=O)[O-])c1cccc(Br)c1 | inconclusive [inhibitor, single point]
45 | O=S(=O)(Nc1ccc(-c2nc3cccnc3s2)cc1)c1cccs1 | inconclusive [activator, single point]
46 | O=c1oc2cc(O)ccc2cc1-c1ccc(F)cc1 | inconclusive [activator, partial curve]

Row | SMILES | Potency
47 | CCNc1ncc2nc(-c3ccc(F)cc3)c(=O)n(C)c2n1 | inconclusive [activator, partial curve]
48 | CCCCCC(=O)Nc1ccc(Cl)cn1 | inconclusive [inhibitor, single point]
49 | O=C(NC1CC1)c1cc(-c2ccco2)nc2ccccc12 | inconclusive [activator, single point]
50 | CC(C)(C)C1CCC(C(=O)Nc2ccccc2)CC1 (stereo not drawn) | inconclusive [inhibitor, single point]
51 | Cc1nc(NC2CCCCC2)c2nc(-c3ccccc3)n(CCCN3CCOCC3)c2n1 | inactive
52 | CCCCc1cc(=O)oc2c(CN(CC)CC)c(O)c(Cl)cc12 | inconclusive [activator, partial curve]
53 | CCCCCCc1cc2cc(C(N)=O)c(=N)oc2cc1O | inconclusive [activator, partial curve, poor fit]
54 | O=C(c1ccc(F)cc1)N1CCN(Cc2ccccc2Br)CC1 | inactive
55 | O=C(CCSCCC(=O)NCc1ccco1)NCc1ccco1 | inactive
56 | Cn1c(N)c(C(=O)CCl)c(=O)n(C)c1=O | inconclusive [inhibitor, single point]
57 | COc1cc(/C=N/NC(=O)C(=O)NCC2CCCO2)cc(Cl)c1O (stereo not drawn) | inactive
58 | CCN1CCc2c(sc3c2c(NCc2ccco2)nc2nnnn23)C1 | inconclusive [activator, single point]
59 | O=C(CCS(=O)(=O)c1ccc(Br)s1)NCc1cccs1 | inconclusive [inhibitor, single point]
60 | COCCn1c(=O)c(-c2cccs2)nc2cncnc21 | inconclusive [activator, partial curve]
61 | COc1ccc(OCc2nnc(SCC(=O)N(C)Cc3ccccc3)n2N)cc1 | inactive
62 | CN(C)S(=O)(=O)Oc1cccc(C(=O)Nc2ccc(Cl)cc2)c1 | inactive
63 | N#CCSc1n[nH]c2nc3c(c(=O)n12)C1(CCCC1)Cc1ccccc1-3 | inconclusive [activator, partial curve]
64 | COc1cccc(/C=N/NC(=O)CN2CC(c3ccccc3)CC2=O)c1OC (stereo not drawn) | inactive
65 | O=C(NCCCN1CCOCC1)c1ccc2c(c1)N(Cc1ccccc1)CCS2 | inconclusive [activator, partial curve]
66 | Cc1ccnc(NS(=O)(=O)c2cc(C(F)(F)F)ccc2Cl)c1 | inconclusive [inhibitor, partial curve, poor fit]
67 | COC(=O)C(Cc1c[nH]c2ccccc12)NC(=O)c1cc(-c2ccc(OC)c(OC)c2)oc1C (stereo not drawn) | inactive
68 | COc1ccc(C2CC(=O)C3=C(C2)Nc2ncnn2C3c2ccccc2C)cc1 (stereo not drawn) | inconclusive [activator, partial curve]
